Consider 1 molecule from US12338279B2, “Selective and potent inhibitory antibodies of myostatin activation” (SCHOLAR ROCK, INC., priority 2022, dated 2025).

Entries after “also recorded” stand apart in the source; their conditions may differ.

One assay deals with circulating leptin. Nature of the assay: Circulating leptin (U-PLEX Metabolic Hormones Combo 1), Example 6. It counts as in vivo, mouse. To be noted: for Leptin Day 64 (circulating leptin): 60%/45% high fat diet. The protocol:
Circulating leptin was measured using the U-PLEX Metabolic Hormones Combo 1 (mouse) according to manufacturer's instructions (Meso Scale Diagnostics, #K15306K-2). As expected, circulating leptin was higher in animals fed the high fat diet than animals fed a standard chow.

The subject of assay [1] is male C57/BL6 mice on high fat diet. Nature of the assay: Diet-induced obesity model, Ab109 with 0.01 or 0.04 mg/kg semaglutide (Example 9). Format: in vivo, mouse. The protocol: Male C57/BL6 male mice (n=8/group) were placed on a 60% high fat diet at ˜6 weeks of age and maintained on the 60% high fat diet until 21 weeks of age (Groups 1-12), at which time the study began (day −7). On day −7, animals in groups 1-12 were switched to a 45% high fat diet and maintained on the 45% high fat diet until the animals were terminated. […] Body weight was measured three times per week and qNMR measurements of lean mass and fat mass were obtained pre-dose on day 0 and on days 7, 14 and 21. Fasting glucose was measured on day 18 after a 4 hour fast.
Animals in groups 3-12 were dosed with semaglutide daily for 3 weeks, then terminated. Animals in groups 1, 3, and 4 were treated with IgG control antibody, and those in groups 2, 5-12 were treated with myostatin activation inhibiting antibody treatment, for 3 weeks.
At termination, left gastrocnemius and quadriceps muscles were removed and frozen; the liver was weighed, one lobe was frozen; epididymal (perigonadal) adipose tissue was removed and weighed; inguinal (subcutaneous) adipose tissue was removed and weighed; and a terminal serum bleed was obtained.

Assay [2] has the same test system. Nature of the assay: High fat diet mice treated with metformin and antibody. It counts as in vivo, mouse. To be noted: for fat mass gain: FIG. 12A. Here is the method:
Male C57/BL6 mice were fed a 60% high fat diet beginning at six weeks of age. At nineteen weeks of age (day 0), the mice were switched to a 45% high fat diet for 63 days. […] These mice were further divided into groups that received either 50 mg/kg of metformin or no metformin (Table 22a).
Body weight and food intake were monitored three times per week throughout the study. On days 7, 35, 49, and 63, body composition was determined by qNMR, and glucose, ketones, and insulin were measured. At the end of the study on day 63, body composition was determined by qNMR; glucose, ketones, and insulin were measured, gastrocnemius muscle, whole liver, epididymal, and subcutaneous adipose tissue was collected and weighed.
Male C57/BL6 mice (n=8/group) were fed a 60% HFD until week 18, at which time they are switched to a 45% HFD for 7 days. At day 7, animals in group 3-6 were treated with 50 mg/kg/day metformin, given orally throughout the remainder of the study.
Body weight was measured three times per week; lean mass and fat mass were measured by qNMR on days 7, 35, 49, 63, and 77; serum glucose was also measured on days 7, 35, 49, 63, and 77; serum insulin was measured on days 49, 63, and 77. A glucose tolerance test (GTT) and an insulin tolerance test (ITT) was administered between day 56 and day 63.

In assay [3] the test system is biotinylated murine pro-myostatin. Nature of the assay: Biacore 8k SPR binding affinity, murine pro-myostatin. Also on record: species or system mouse. The text has this:
(§1) The Biacore™ 8 k SPR system was utilized to evaluate the binding affinity of myostatin antibodies to biotinylated human, murine, and cyno pro-myostatin. Biotin CAPture kit and sensor chips (Cytiva) were utilized in these experiments to immobilize the various antigens, followed by flowing a range of concentrations of each of the test antibodies.

Assay [4] has as its system biotinylated human pro-myostatin. Nature of the assay: Biacore 8k SPR binding affinity, human pro-myostatin.
Excerpt: as §1
(Surface plasmon resonance follows binding to a sensor surface in real time, without labels.)

B1: Ab109: anti-pro/latent myostatin antibody; CDRs in Tables 2d-f, variable domains Table 3, chains Table 4 (antibody)
heavy: EVQLVESGGGLVQPGGSLRLSCAASGFTFSSYGMSWVRQAPGKGLELVASFTGSGGTYYPDSVKGRFTISRDNAKNSLYLQMNSLRAEDTAVYYCARDLLIRFLEWSHYYGMDVWGQGTTVTVSSASTKGPSVFPLAPCSRSTSESTAALGCLVKDYFPEPVTVSWNSGALTSGVHTFPAVLQSSGLYSLSSVVTVPSSSLGTKTYTCNVDHKPSNTKVDKRV[human IgG4 Fc with S228P (EU numbers) left out]
light: DIVMTQSPLSLPVTPGEPASISCRSSQSLLHSSGHNFLHWYLQKPGQSPQLLIYEVSNRVSGVPDRFSGSGSGTDFTLKISRVEAEDVGVYYCMQQTQYPPTFGGGTKVEIKRTVAAPSVFIFPPSDEQLKSGTASVVCLLNNFYPREAKVQWKVDNALQSGNSQESVTEQDSKDSTYSLSSTLTLSKADYEKHKVYACEVTHQGLSSPVTKSFNRGEC
For the molecule B1, the results for the “Leptin Day 64 (circulating leptin)” value in the assay with circulating leptin (Ab109 + semaglutide 0.04 mg/kg day 7-35 (regain arm)) and in the assay with circulating leptin (Ab109 + semaglutide 0.04 mg/kg day 7-63) were 21.71 ng/mL and 12.4 ng/mL, respectively. Moreover, the circulating leptin entry with circulating leptin (treatment arm as in the words, FIG. 14K) is “decreased circulating leptin in the semaglutide withdrawal group”. In addition, the fat mass loss entry in assay [1] (Ab109 in combination with 0.01 mg/kg semaglutide, FIG. 19B) is “improved fat mass loss compared to those treated with 0.01 mg/kg semaglutide and IgG control”; in assay [1] (Ab109 in combination with 0.04 mg/kg semaglutide, FIG. 19A, 19C, 0.04 mg/kg), “improved fat mass loss compared to IgG control with semaglutide; also recorded: improved fat mass loss in a dose-dependent manner”. Besides, the quadriceps weight result in assay [1] (Ab109 in combination with semaglutide, FIG. 21A) is given as “prevented this muscle loss”. For the same molecule, the gastrocnemius muscle weight result in assay [1] (Ab109 in combination with semaglutide, FIG. 21B) is “prevented this muscle loss”. The “perigonadal fat pad loss” value in assay [1] (Ab109 in combination with semaglutide, FIG. 22A) is on record as “only improved fat pad loss at select doses”. Also, in assay [1] (Ab109 in combination with semaglutide, FIG. 22B), the “inguinal fat pad loss” value is “improved inguinal fat pad loss”. The fat mass gain in assay [1] (Ab109 monotherapy without semaglutide, FIG. 19A) is given as 7%; in assay [2] (combination of metformin 50 mg/kg and Ab109, 45% high fat diet), “stopped the fat mass gain”; in assay [2] (metformin alone or Ab109 alone, 45% high fat diet), “Neither metformin alone nor Ab109 alone showed this effect”. For the same molecule, the “increase in lean mass” value in assay [1] (Ab109 treatment alone, FIG. 20C) is 8.3%. In addition, the body weight result in assay [1] (Ab109 with 0.01 mg/kg semaglutide, FIGS. 18A-B) is given as “maintained steady body weight”. Further, the lean mass change result in assay [1] (Ab109 with 0.04 mg/kg semaglutide, FIG. 20A) was “blunted these lean mass losses and helped maintain a close-to-neutral lean mass change at 3 mg/kg and 10 mg/kg of Ab109”. Besides, the lean muscle mass result in assay [2] (with or without metformin, FIG. 12B) was “gained more lean muscle mass regardless of whether they received metformin”. Also, the “Ka” value in assay [3] is 6.81e+06 M⁻¹ s⁻¹; in assay [4], 6.62e+06 M⁻¹ s⁻¹. Besides, the “Kd (1/s)” value in assay [3] is 0.00134 s⁻¹; in assay [4], 0.000196 s⁻¹.
